Measured values: paper PMC6978305, “Formation of S. pombe Erh1 homodimer mediates gametogenic gene silencing and meiosis progression” (Scientific Reports, 2020)
Residue numbers refer to the chain shown, from its start. Numbers in names are those of the source. No constants are given. Whether binding was seen depends on the method and setting. For some assays here: In cells and extracts the contact can be indirect. Some results given as binding are weak or reduced against the parent protein; the word gives no strength. For some assays here: Tags and fused reporters may be left off the sequences shown.

Tests used:
[1] = target: Wild-type Erh1, TAP-tagged and FLAG-tagged copies co-expressed in S. pombe (S. pombe) (UniProt G2TRN4); assay: co-IP; TAP pull-down from native extracts of S. pombe erh1∆ cells expressing plasmid-encoded tagged Erh1, Western blot; as described in Simonetti et al. (ref. 21)
Mmi1-TAP (S. pombe) = target: T1, Mmi1-TAP (S. pombe) (UniProt O74958); assay: as above
T1 sequence: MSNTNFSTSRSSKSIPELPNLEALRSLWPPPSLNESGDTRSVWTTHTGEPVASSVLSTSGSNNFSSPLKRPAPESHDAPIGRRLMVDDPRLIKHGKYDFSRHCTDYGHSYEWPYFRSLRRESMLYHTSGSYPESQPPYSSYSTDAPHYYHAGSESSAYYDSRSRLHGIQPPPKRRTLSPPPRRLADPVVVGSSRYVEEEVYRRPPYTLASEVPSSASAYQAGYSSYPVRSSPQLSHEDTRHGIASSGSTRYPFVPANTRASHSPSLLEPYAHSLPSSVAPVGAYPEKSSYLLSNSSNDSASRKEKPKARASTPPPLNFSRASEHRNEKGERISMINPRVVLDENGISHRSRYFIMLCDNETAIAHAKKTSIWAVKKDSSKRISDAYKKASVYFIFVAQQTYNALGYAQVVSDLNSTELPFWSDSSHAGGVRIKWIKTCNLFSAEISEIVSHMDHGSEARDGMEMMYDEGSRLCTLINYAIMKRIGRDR

[2] = target: S. pombe Erh1 I11R,L13R double mutant, recombinant (S. pombe) (UniProt G2TRN4); assay: SEC-MALS; SEC-MALLS of purified recombinant proteins in solution; both purified
[3] = target: Erh1 I11R,L13R, TAP-tagged and FLAG-tagged copies co-expressed in S. pombe (S. pombe) (UniProt G2TRN4); assay: co-IP; TAP pull-down from native extracts of S. pombe erh1∆ cells expressing plasmid-encoded tagged Erh1, Western blot; as described in Simonetti et al. (ref. 21)

B1: Wild-type Erh1, TAP-tagged and FLAG-tagged copies co-expressed in S. pombe (protein, UniProt G2TRN4 1-104)
chain: MSPPPAESHIILLIQQGSDPKTRIWSDHCSLRSAIEYIVGVYQTNQAVSEKESIDVSRFFNFFDEIYDCVPLVYDRHFRAYIPHEKQWLLHHAQEYLTAARQIP
binding [1]: binds

B2: GFP-Erh1, wild type, plasmid-encoded in S. pombe (protein, UniProt G2TRN4 1-104)
chain: B1 chain
binding (Mmi1-TAP (S. pombe)): binds

B3: GFP-Erh1 I11R,L13R, plasmid-encoded in S. pombe (protein, UniProt G2TRN4 1-104)
chain: B1 chain with I11R, L13R
binding (Mmi1-TAP (S. pombe)): binds

B4: S. pombe Erh1 I11R,L13R double mutant, recombinant (protein, UniProt G2TRN4 1-104)
chain: B1 chain with I11R, L13R
binding [2]: no binding

B5: Erh1 I11R,L13R, TAP-tagged and FLAG-tagged copies co-expressed in S. pombe (protein, UniProt G2TRN4 1-104)
chain: B1 chain with I11R, L13R
binding [3]: no binding
